Source: the supplement of paper PMC3334620
The full ranking holds about 33,000 sequences; the median of “E-score (-0.5 to 0.5)” is about -0.035, and the highest 2% start at about 0.34. Some of the results follow.

Molecular target: T1, Mot3 (UniProt P54785)
T1 sequence: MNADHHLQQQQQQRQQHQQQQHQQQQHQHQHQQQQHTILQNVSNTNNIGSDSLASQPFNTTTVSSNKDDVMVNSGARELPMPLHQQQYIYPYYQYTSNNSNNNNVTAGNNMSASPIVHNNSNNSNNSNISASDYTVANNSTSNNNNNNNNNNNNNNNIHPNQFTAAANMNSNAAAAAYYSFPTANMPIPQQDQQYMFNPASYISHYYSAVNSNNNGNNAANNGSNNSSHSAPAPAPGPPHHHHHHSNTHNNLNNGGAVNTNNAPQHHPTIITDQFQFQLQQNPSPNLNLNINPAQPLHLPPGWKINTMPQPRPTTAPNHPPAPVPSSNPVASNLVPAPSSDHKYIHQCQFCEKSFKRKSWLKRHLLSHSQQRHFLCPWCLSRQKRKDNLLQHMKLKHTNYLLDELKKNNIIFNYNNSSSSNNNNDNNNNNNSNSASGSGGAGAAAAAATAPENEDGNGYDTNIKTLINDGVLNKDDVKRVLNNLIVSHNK
Assay: PBM E-score (8-mer binding enrichment) (E-score (-0.5 to 0.5)); higher = stronger / more preferred TF binding; most listed sequences are background and not binding sites
Conditions: protein concentration: 200 nM; construct: GST-full length
Summary of the method: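 E-scores (a modified Wilcoxon-Mann-Whitney statistic) were assigned by the Universal PBM Analysis Suite to every ungapped eight-base word pooled with its reverse complement. The input came from universal all-10-mer Agilent arrays made double-stranded by primer extension and probed with GST-tagged yeast transcription factors at about 100-200 nM. Fluorescent anti-GST detected bound protein, and masliner normalised the scans.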

Sequence	PBM E-score
CGACCGGC	-0.233
GGGTACAA	-0.012
CGGCAAAG	-0.226
ACGTTTCA	0.192
AGCATTGC	-0.111
AACGGAGG	-0.0591
AGACGTGC	0.0368
GCGTAAGA	0.253
AGCCTGTA	0.342
AACTCTGT	-0.126
CGCCTACC	0.0721
GACTACCC	-0.199
AATAGGCG	0.215
AAAATCCA	0.0654
AGCATAAG	0.0413
ACTTGATC	-0.103
GGACGTTA	0.19
GTCCTACA	0.0423
AATCTGTA	0.124
ATCACATC	-0.0185
AGTAATCG	0.184
AACTAGCA	-0.0161
GTTGGTCA	0.0627
ACATCCTG	0.183
AAACATCT	0.105

Sequence	PBM E-score
GGTATCCA	-0.0998
GCGTTCCC	-0.134
AGATCTGC	0.116
AGACTGCT	-0.289
AACCATGT	0.299
GCAACACA	0.203
ACCGAATG	0.00173
GAGAGGGC	-0.329
ACCTCTGA	-0.206
AGTCTAAC	-0.126
AAACGCCG	0.0313
ATCACCAT	0.108
AACAATAA	0.204
CCGTCAAG	-0.0863
CAACGGGG	-0.149
ATTCACCG	-0.125
GTATCGAC	-0.0352
CATTTAAC	0.28
CTCGCCAC	-0.196
CCCAAGGA	-0.0628
ATCCATAA	-0.166
GATGCATC	0.0564
AGCATTCA	-0.221
AAAGGCCC	0.147
ACATCAGA	-0.00156

Sequence	PBM E-score
AGTGATTC	-0.113
ACGGTAAT	-0.0828
ATCTTGGG	-0.157
CGAGATGA	-0.284
CCCCTGGC	-0.327
CAGTGAAG	0.0639
AACCTGGC	-0.00883
ACTAATTC	0.106
CAAGGTGC	0.0747
GACTAATC	-0.182
GTCCCAAC	-0.158
GTAGAGTA	0.163
GGTCACAA	-0.101
AACTAGGA	0.0811
TAATGTCA	0.139
GAAGATAC	-0.078
CCCACCCA	-0.263
CTATTTGA	0.0907
AGAACTTC	-0.11
AGTATTAT	0.102
AACTATGG	-0.0254
GCTAGGCC	-0.374
CCTGACGC	-0.225
AAAGGTTG	-0.17
CAAAAATG	0.0761

Sequence	PBM E-score
AGGACAGG	-0.0754
AACGAACG	-0.0159
CTTGTCTA	0.064
AAGGCTCC	0.252
CCGACCCC	-0.181
CTCGTTAC	0.0497
TATGTCGA	0.196
CTCTGCGA	-0.116
AAATACGT	0.237
CTTCTTGA	-0.0691
CTTTACAA	0.326
AGATCCCA	-0.127
AGACGCTC	-0.394
CTATCACC	-0.123
GTTAACGA	0.179
CAGCTGGA	-0.104
ACTGGACG	-0.17
GCACTAAA	0.188
GGCGAATA	-0.0303
ACCAGAGA	-0.178
GGAGTCAA	-0.218
AGATTGTC	-0.0677
CGTTAGTA	0.0806
GATAACCA	-0.155
CGGTCTAC	-0.0115

Sequence	PBM E-score
AACAATCG	-0.0422
GGCTGACC	-0.33
ATAGGCGA	-0.00899
AGGACATG	0.0997
TCGAGCAA	0.158
TCGGAGAA	-0.132
CGACGAGC	-0.129
ACTGGGGC	-0.203
CCTTAAGC	0.0192
CACTGCTA	0.0645
ACGCGGGG	0.0777
ACAGTAAC	0.11
GGCACGCA	0.348
CCCCTAGC	-0.266
AGACCTAG	-0.154
CAATCCTA	-0.125
AGTCGGGG	-0.213
AACTAGTG	-0.0349
CGTCCGAG	-0.107
AGGTATGC	0.0371
AAGGGCGC	0.0329
CCGGCCAC	-0.377
ACTAAGTA	0.109
ATAGTGCG	-0.167
AACACGGA	0.252

Sequence	PBM E-score
CATCTACC	-0.121
GCAGGCGA	0.123
GACAGGTC	-0.152
CGGACTTA	0.00405
CAGCGTTA	0.00794
TAAATAAA	0.141
GATAACGA	0.11
GACTCGCA	-0.245
AGTCTGCA	-0.211
AAGTCTGG	-0.00866
ATCATATG	0.0526
CAGCAGCA	-0.117
CACAATGA	0.05
CAAAATTG	-0.0242
CCCTCTAG	-0.0447
ATGTAGAG	0.252
ATCCATCG	-0.2
CCGATACA	-0.00192
CCCTCTGC	-0.151
AATCGGTC	-0.115
CACAGTAG	0.0475
CCATCTTA	-0.172
CGAGGGAG	-0.264
ACTAGTTG	-0.109
GTACAGAC	0.125

Sequence	PBM E-score
ATGCTGCG	-0.101
AATGGCGG	-0.349
CTCAAACC	-0.113
ATAAAACA	0.206
ACCTCGTA	0.0898
CGCCACAC	-0.131
CCATAGCA	-0.219
GACTGCGC	-0.133
AGTCGGGA	-0.232
AACCCGGC	-0.199
CGGATGAA	-0.0834
CTTTAAAC	0.162
GCTCTTCA	-0.238
CATACTCA	0.0609
TAGGGGCA	-0.148
CTGTCGAA	0.125
CAAGGAAC	0.43
AGGCCAAA	-0.028
CCGCTCGC	-0.325
CAATGCTA	-0.0366
CGTTTGCA	-0.0501
AGCTAACG	0.00459
